Laboratory results reported in PMC3640056.
Results are given in words; binding and its absence hold for the method and conditions named. Binding seen in cells or lysates may run through a third protein. Some results given as binding are weak or reduced against the parent protein; the word gives no strength. For some assays here: Sequences can lack the tags named with a protein.

What was measured:
GST-Rab40c (human) [1] = biological target: GST-Rab40c (human) (UniProt Q96S21); assay: pull-down; GST or GST fusion proteins immobilized onto GST-Sepharose-4B resin, incubated with lysates of MCF7 cells transfected with GFP-Rab40 constructs; western blot with GFP antibody; only the target purified
GST-Rab40c (human) [2] = biological target: GST-Rab40c (human) (UniProt Q96S21); assay: pull-down; GST or GST fusion proteins coupled to GST-Sepharose 4B resin, incubated with 3T3-L1 cell lysates; retained proteins blotted with antibodies against TIP47, Perilipin or ADRP; only the target purified
GST-Rab40c(SOCS) (human) = GST-Rab40c(SOCS) (human) (UniProt Q96S21); assay: as above
[3] = biological target: T1, GST-Rab40c (human), Q96S21; assay: pull-down; GST or GST fusion proteins immobilized onto GST-Sepharose-4B resin, incubated with lysates of MCF7 cells transfected with GFP-Rab40 constructs; western blot with GFP antibody; only the target purified; settings: remark: other sources report otherwise
T1 chain: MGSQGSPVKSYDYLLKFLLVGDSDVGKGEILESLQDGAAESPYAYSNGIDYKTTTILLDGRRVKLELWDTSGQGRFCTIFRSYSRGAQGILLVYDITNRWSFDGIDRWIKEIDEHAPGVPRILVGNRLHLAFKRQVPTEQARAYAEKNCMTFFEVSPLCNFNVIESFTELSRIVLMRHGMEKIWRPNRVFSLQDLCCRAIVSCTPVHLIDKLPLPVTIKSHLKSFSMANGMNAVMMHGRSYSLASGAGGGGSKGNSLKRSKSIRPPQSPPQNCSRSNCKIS

[4] = biological target: T2, GST-Rab40b (human), Q12829; assay: as above; settings: remark: other sources report otherwise
T2 chain: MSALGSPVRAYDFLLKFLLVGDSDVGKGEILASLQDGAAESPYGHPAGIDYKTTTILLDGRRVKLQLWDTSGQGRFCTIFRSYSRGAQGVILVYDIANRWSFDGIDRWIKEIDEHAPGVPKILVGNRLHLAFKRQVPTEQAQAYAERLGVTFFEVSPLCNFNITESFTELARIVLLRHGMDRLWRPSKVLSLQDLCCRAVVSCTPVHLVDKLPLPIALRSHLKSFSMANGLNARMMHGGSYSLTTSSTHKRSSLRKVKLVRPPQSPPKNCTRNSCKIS

With “GFP-Rab40c(SOCS) (from UniProt Q96S21 1-281)” the binding (GST-Rab40c (human) [1]) was “no binding”.

With “GFP-Rab40cQ73L (from UniProt Q96S21 1-281)” the binding (GST-Rab40c (human) [1]) was “binds”.

B1: TIP47 (tail-interacting protein 47 KDa) (protein, UniProt Q9DBG5 1-437)
chain: MSSNGTDAPAEAQAAMEEPVVQPSVVDRVAGLPLISSTYGMVSAAYTSTKENYPHVRTVCDVAEKGVKTLTTAAVSTAQPILSKLEPQIATASEYAHRGLDRLQESLPILQQPTEKVLADTKELVSSTVSGAQEMVSSSVSSAKETVATRVTGAVDVTLGAVQNSVDKTKSAMTSGVQSVMGSRVGQMVISGVDRVLVKSEAWADNRLPLTEAELALIATPPEDSDMASLQQQRQEQNYFVRLGSLSERLRNHAYEHSLGKLQNARQKAQETLQQLTSVLGLMESVKQGVDQRLGEGQEKLHQMWLSWNQKTPQDAEKDPAKPEQVEARALSMFRDITQQLQSMCVALGASIQGLPSHVREQAQQARSQVNDLQATFSGIHSFQDLSAGVLAQTRERIARAREALDNTVEYVAQNTPAMWLVGPFAPGITEKTPEGK
B1 was tested, and the binding (GST-Rab40c (human) [2]) was “binds” and the binding (GST-Rab40c(SOCS) (human)) was “no binding”.

B2: GFP-Rab40c, Q96S21 1-281 (protein)
chain: MGSQGSPVKSYDYLLKFLLVGDSDVGKGEILESLQDGAAESPYAYSNGIDYKTTTILLDGRRVKLELWDTSGQGRFCTIFRSYSRGAQGILLVYDITNRWSFDGIDRWIKEIDEHAPGVPRILVGNRLHLAFKRQVPTEQARAYAEKNCMTFFEVSPLCNFNVIESFTELSRIVLMRHGMEKIWRPNRVFSLQDLCCRAIVSCTPVHLIDKLPLPVTIKSHLKSFSMANGMNAVMMHGRSYSLASGAGGGGSKGNSLKRSKSIRPPQSPPQNCSRSNCKIS
With B2 the binding [3] was “binds”.

B3: ADRP (adipocyte differentiation related protein or adipophilin) (protein, UniProt P43883 1-425)
chain: MAAAVVDPQQSVVMRVANLPLVSSTYDLVSSAYVSTKDQYPYLRSVCEMAEKGVKTVTSAAMTSALPIIQKLEPQIAVANTYACKGLDRMEERLPILNQPTSEIVASARGAVTGAKDVVTTTMAGAKDSVASTVSGVVDKTKGAVTGSVERTKSVVNGSINTVLGMVQFMNSGVDNAITKSELLVDQYFPLTQEELEMEAKKVEGFDMVQKPSNYERLESLSTKLCSRAYHQALSRVKEAKQKSQETISQLHSTVHLIEFARKNMHSANQKIQGAQDKLYVSWVEWKRSIGYDDTDESHCVEHIESRTLAIARNLTQQLQTTCQTVLVNAQGLPQNIQDQAKHLGVMAGDIYSVFRNAASFKEVSDGVLTSSKGQLQKMKESLDEVMDYFVNNTPLNWLVGPFYPQSTEVNKASLKVQQSEVKAQ
B3 was tested, and the binding (GST-Rab40c (human) [2]) was “no binding”.

B4: Perilipin (protein, UniProt Q8CGN5 1-517)
chain: MSMNKGPTLLDGDLPEQENVLQRVLQLPVVSGTCECFQKTYNSTKEAHPLVASVCNAYEKGVQGASNLAAWSMEPVVRRLSTQFTAANELACRGLDHLEEKIPALQYPPEKIASELKGTISTRLRSARNSISVPIASTSDKVLGATLAGCELALGMAKETAEYAANTRVGRLASGGADLALGSIEKVVEFLLPPDKESAPSSGRQRTQKAPKAKPSLVRRVSTLANTLSRHTMQTTAWALKQGHSLAMWIPGVAPLSSLAQWGASAAMQVVSRRQSEVRVPWLHNLAASQDESHDDQTDTEGEETDDEEEEEESEAEENVLREVTALPNPRGLLGGVVHTVQNTLRNTISAVTWAPAAVLGTVGRILHLTPAQAVSSTKGRAMSLSDALKGVTDNVVDTVVHYVPLPRLSLMEPESEFRDIDNPSAEAERKGSGARPASPESTPRPGQPRGSLRSVRGLSAPSCPGLDDKTEASARPGFLAMPREKPARRVSDSFFRPSVMEPILGRAQYSQLRKKS
In the case of B4, the binding (GST-Rab40c (human) [2]) is reported as “no binding”.

B5: GFP-Rab40b, Q12829 1-278 (protein)
chain: MSALGSPVRAYDFLLKFLLVGDSDVGKGEILASLQDGAAESPYGHPAGIDYKTTTILLDGRRVKLQLWDTSGQGRFCTIFRSYSRGAQGVILVYDIANRWSFDGIDRWIKEIDEHAPGVPKILVGNRLHLAFKRQVPTEQAQAYAERLGVTFFEVSPLCNFNITESFTELARIVLLRHGMDRLWRPSKVLSLQDLCCRAVVSCTPVHLVDKLPLPIALRSHLKSFSMANGLNARMMHGGSYSLTTSSTHKRSSLRKVKLVRPPQSPPKNCTRNSCKIS
With B5 the binding [4] was “no binding”.
